Article PMC4336329 (PLoS ONE, 2015)
Among all 310,000 compounds or so, about 2,200 (0.71%) showed an effect of 50% or more. The effect is printed as a negative number. The list shows a part of the results.

These molecules were tested against human ether-à-go-go-related gene (hERG) potassium channel (human, UniProt Q12809) (assay: primary screen, population patch clamp on CHO cells stably expressing hERG).
Chain of human ether-à-go-go-related gene (hERG) potassium channel (Q12809 whole entry, looked up): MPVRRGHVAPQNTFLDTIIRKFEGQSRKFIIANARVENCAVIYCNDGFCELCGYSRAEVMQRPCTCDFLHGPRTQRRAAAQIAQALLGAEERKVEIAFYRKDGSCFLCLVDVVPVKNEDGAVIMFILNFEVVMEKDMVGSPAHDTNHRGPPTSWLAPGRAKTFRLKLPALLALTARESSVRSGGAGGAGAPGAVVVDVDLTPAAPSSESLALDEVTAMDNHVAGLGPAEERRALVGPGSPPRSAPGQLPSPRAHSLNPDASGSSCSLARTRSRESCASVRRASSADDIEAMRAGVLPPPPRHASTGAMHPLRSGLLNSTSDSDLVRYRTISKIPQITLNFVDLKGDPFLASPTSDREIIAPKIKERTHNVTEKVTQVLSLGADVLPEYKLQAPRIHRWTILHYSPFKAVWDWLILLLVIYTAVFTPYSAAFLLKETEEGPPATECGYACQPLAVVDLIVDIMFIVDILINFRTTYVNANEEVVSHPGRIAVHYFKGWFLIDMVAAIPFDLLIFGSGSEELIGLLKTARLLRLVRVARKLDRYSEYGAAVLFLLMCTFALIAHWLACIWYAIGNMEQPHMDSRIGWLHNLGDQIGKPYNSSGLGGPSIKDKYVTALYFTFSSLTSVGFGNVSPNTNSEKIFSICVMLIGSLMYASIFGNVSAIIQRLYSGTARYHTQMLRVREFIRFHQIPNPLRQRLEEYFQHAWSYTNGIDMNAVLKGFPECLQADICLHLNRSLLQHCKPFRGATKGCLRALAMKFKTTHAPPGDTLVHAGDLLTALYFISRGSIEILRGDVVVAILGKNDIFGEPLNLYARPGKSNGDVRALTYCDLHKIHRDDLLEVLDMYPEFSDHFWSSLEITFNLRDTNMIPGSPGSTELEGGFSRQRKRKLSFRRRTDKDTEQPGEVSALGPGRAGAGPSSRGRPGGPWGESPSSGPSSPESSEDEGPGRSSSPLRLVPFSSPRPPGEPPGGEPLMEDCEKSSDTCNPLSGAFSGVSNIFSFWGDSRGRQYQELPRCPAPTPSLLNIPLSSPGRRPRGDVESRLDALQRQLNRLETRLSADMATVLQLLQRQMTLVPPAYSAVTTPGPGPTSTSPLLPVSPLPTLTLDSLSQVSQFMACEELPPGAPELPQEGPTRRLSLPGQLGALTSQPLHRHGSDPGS

Structure (SMILES) | hERG current change (%, negative = inhibition) at 1uM
Cc1oc2ccc(O)c(CN3CCOCC3)c2c1C(C)O (stereo not drawn) | 0.188%
O=C(Nc1ccc(Cl)cc1)N1CCSC1=NCc1ccccc1 | 13.6%
O=C(COc1ccccc1-c1ccccc1)NCCN1C(=O)S/C(=C\c2cccnc2)C1=O | 5.69%
Cc1cc(C)c2c(N)c(C(=O)c3ccccc3)oc2n1 | 1.72%
Cn1c(N)c(C(=O)COC(=O)c2cc(C(F)(F)F)nc3ccccc23)c(=O)n(C)c1=O | 3.95%
Cc1ccc(NC(=O)N(CCCN2CCOCC2)Cc2cccnc2)cc1C | 5.2%
C/C(=N\NC(=O)c1ccccc1O)c1cccs1 | 8.69%
CSCCC(NC(=O)c1ccco1)C(=O)Nc1ccncc1 (stereo not drawn) | 12%
O=C(CSc1ncnc2c1cnn2CCc1ccccc1)Nc1cccc(C(F)(F)F)c1 | 6.5%
O=C(CCN1C(=O)/C(=C/c2cccs2)SC1=S)NNC(=O)c1cccc(O)c1 | 7.92%
Cc1ccc(S(=O)(=O)c2nc(-c3cccs3)oc2NCc2cccnc2)cc1 | -0.465%
Cc1ccc(CNC(=O)CS(=O)(=O)Cc2nc(-c3ccc(C)cc3)oc2C)cc1 | 12%
CCOc1ccc(NS(=O)(=O)c2ccc(C(=O)NCC(c3ccc(OC)cc3)N3CCOCC3)cc2)cc1 (stereo not drawn) | 15%
O=C(O)CN1C(=O)c2ccc(Oc3ccc([N+](=O)[O-])cc3)cc2C1=O | 20.4%
COc1ccc(NC(=O)Cn2nnc(C(=O)Nc3ccccc3C)c2N)cc1 | 15.5%
CCC(CO)NC(=O)c1ccc(-c2nn(C)c(=O)c3ccccc23)cc1 (stereo not drawn) | 4.07%
CN(C)c1ccc(CNC2CC(C)(C)NC(C)(C)C2)cc1 | 10.9%
Clc1ccc(Oc2ncnc3oc(-c4ccccc4)cc23)cc1 | 6.4%
O=C(CSc1ncn[nH]1)Nc1ccc(Cl)c(Cl)c1 | 7.36%
CC(C)(C)CC(C)(C)c1ccc(O)c(CN2CCN(CCC#N)CC2)c1 | 15.8%
O=C(CN1C(=O)C2CC=CCC2C1=O)Nc1nnc(SCc2ccc(F)cc2)s1 (stereo not drawn) | 5.08%
CCOc1ccccc1N1CCN(Cc2cccc(OC)c2OC)CC1 | -2.34%
CCC(=O)Nc1ccc(NC(=O)c2ccccn2)cn1 | 12.8%

Structure (SMILES) | hERG current change (%, negative = inhibition) at 1uM
O=C(Nn1cnnc1)c1ccc(F)cc1 | 8.73%
Cc1cc(C(=O)N/N=C/C=C/c2ccc3c(c2)OCO3)n[nH]1 | 6.14%
Cc1cc(Cl)cc2c1NC(=O)[C@]21[C@@H]2C(=O)N(Cc3ccccc3)C(=O)[C@@H]2[C@@H]2CCCN21 | 0.242%
O=C(NCCOc1ccccc1F)c1ccccc1SCc1ccc(F)cc1 | 4.4%
CCc1c(C)nc(SCC(=O)c2ccc(C)c(C)c2)[nH]c1=O | 7.31%
CCOC(=O)c1c(N)sc(C(=O)N(CC)CC)c1C | 12.4%
Cn1c(NNC(=O)c2ccc(C(C)(C)C)cc2)cc(=O)n(C)c1=O | 5.33%
O=c1oc2ccccc2c(Nc2cccc3ccccc23)c1[N+](=O)[O-] | 12.6%
COCCN(C(=O)CCC(=O)Nc1cc(C)on1)C(C(=O)NC1CCCC1)c1ccccc1F (stereo not drawn) | 22.4%
CCCC1(C(=O)OCC)NC(c2ccc(OC)cc2OC)C2C(=O)N(c3ccc4c(c3)OCCO4)C(=O)C21 (stereo not drawn) | 0.29%
O=S(=O)(c1ccc2nnn(OCc3ccccc3)c2c1)N1CCOCC1 | 8.31%
CCN1CCc2nc(N)sc2C1 | 7.64%
COc1ccc(/C=C2\SC(=S)N(C(C)C(=O)NC3C=CS(=O)(=O)C3)C2=O)cc1 (stereo not drawn) | 18.6%
C=C(C)C(=O)O[C@H]1C/C(C)=C\C(=O)/C=C(\C)[C@H](O)[C@@H]2OC(=O)C(=C)[C@@H]21 | 13.3%
COC(=O)COc1ccc2cccc(-n3cnnn3)c2c1 | 12.5%
O=C(C1CCN(C2CC(=O)N(c3cccc(Cl)c3)C2=O)CC1)N1CCCCCC1 (stereo not drawn) | 5.78%
COc1ccc(NC(=O)Cn2nnc(-c3ccccc3NC(=O)c3ccco3)n2)cc1 | -1.08%
COc1ccc(Cl)cc1Nc1cc(C)nc2ccccc12 | -32.2%
COc1cc(C=NCC2OCCc3ccccc32)cc(OC)c1 (stereo not drawn) | 13.1%
CCc1nn(CC(=O)Nc2ccc(Br)c(C)c2)c(=N)s1.Cl | -8.04%
CCOC(=O)/C(=C/Nc1ccc(F)cc1)[N+](=O)[O-] | 10%
COc1ccccc1NC(C)C(=O)N/N=C/c1ccccc1OCc1cccc(Br)c1 (stereo not drawn) | 1.83%
